From PMC10831071, “Reaction hijacking inhibition of Plasmodium falciparum asparagine tRNA synthetase” (Nature Communications, 2024)
Several values for one entry are separate records, joined by “and”; a condition that tells them apart may be missing. Identical values can stand only once. Like-named read-outs stand apart in the source and are kept apart here.

Assays:
PfAsnRS^R487S = target: T1, PfAsnRS^R487S (Plasmodium falciparum, UniProt O96198, R487S); assay: biochemical
T1 sequence (O96198 1-610 R487S): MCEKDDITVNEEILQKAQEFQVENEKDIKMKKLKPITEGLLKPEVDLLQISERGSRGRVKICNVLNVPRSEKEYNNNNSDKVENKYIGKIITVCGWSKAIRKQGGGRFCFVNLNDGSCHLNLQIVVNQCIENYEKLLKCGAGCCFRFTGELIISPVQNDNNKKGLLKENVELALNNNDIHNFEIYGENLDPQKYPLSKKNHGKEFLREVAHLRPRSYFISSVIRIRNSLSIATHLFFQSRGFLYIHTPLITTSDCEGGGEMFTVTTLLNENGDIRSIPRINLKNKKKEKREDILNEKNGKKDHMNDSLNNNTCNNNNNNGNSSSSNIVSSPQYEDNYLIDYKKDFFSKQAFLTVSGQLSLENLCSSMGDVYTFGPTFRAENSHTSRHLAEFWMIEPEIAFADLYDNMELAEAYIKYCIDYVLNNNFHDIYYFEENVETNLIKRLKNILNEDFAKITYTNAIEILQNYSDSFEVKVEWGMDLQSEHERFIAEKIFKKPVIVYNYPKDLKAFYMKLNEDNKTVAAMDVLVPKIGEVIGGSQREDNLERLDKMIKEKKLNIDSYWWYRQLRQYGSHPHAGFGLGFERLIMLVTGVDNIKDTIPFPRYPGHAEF

[1] = test system: P. falciparum PfAsnRS^R487S mutant line (Dd2); assay: 72 h sensitivity of CRISPR-edited PfAsnRS R487S line; format: cell-based, Plasmodium falciparum; conditions: for IC50: Plasmodium falciparum
Source text: Two guide RNAs were designed using Benchling (benchling.com). The gRNA1 (5’-[…]-3’) and gRNA2 ([…]) were located near the mutation site. Both gRNAs and their complementary sequences were synthesized as primers by IDT. Each gRNA was cloned into the pDC2-coCas9-gRNA plasmid. A donor template of 780 bp, encompassing coding nucleotide sequences 1045-1824, was synthesized (Thermo Fisher Scientific) and assembled at the AatII and EcoRI sites using NEBuilder HiFi DNA Assembly. […] Transfections were performed on ring-stage Dd2 parasites using a BioRad Gene Pulser II as described, with 5 nM WR99210 drug pressure applied for 8 days. Edited clones were isolated by limiting dilution and validated by Sanger sequencing.

NC(=O)C[C@H](N)C(=O)NS(=O)(=O)c1cccc(-c2cc3ncnc(N)c3s2)c1 [Asn-OSM-S-106]
ATP consumption (PfAsnRS^R487S; 0.005 μM Asn-OSM-S-106, PfAsnRSR487S, 0 μM = 100 (Fig 3F), 0.005 µM): 101.371 and 90.5979 and 103.201
activity at 0.005 µM (PfAsnRS^R487S; read-out: ATP consumption, 0.005 μM Asn-OSM-S-106, PfAsnRSR487S, 0 μM = 100 (Fig 3F)): 95.3%

Nc1ncnc2cc(-c3cccc(S(N)(=O)=O)c3)sc12 [OSM-S-106]
decreased sensitivity of PfAsnRS^R487S line vs Dd2 parent ([1]; 72 h): 2.3 fold
IC50 ([1]; DD2, PfAsnRSR487S mutant line, individual experiments): 156 nM
IC50 ([1]; DD2, PfAsnRSR487S mutant lines, mean ± S.D., five experiments): 165 nM
IC50 (PfAsnRS^R487S): > 500000 nM
ATP consumption (PfAsnRS^R487S; 0.1 μM OSM-S-106, PfAsnRSR487S + tRNA, 0 μM = 100, 0.1 µM): 104.503 and 121.093
ATP consumption (PfAsnRS^R487S; 0.1 μM OSM-S-106, PfAsnRSR487S - tRNA, 0 μM = 100, 0.1 µM): 99.7961 and 126.786 and 109.576
ATP consumption (PfAsnRS^R487S; 1 μM OSM-S-106, PfAsnRSR487S + tRNA, 0 μM = 100, 1 µM): 98.1499 and 122.134
ATP consumption (PfAsnRS^R487S; 1 μM OSM-S-106, PfAsnRSR487S - tRNA, 0 μM = 100, 1 µM): 97.0073 and 108.474
ATP consumption (PfAsnRS^R487S; 5 μM OSM-S-106, PfAsnRSR487S + tRNA, 0 μM = 100, 5 µM): 72.6057 and 105.524
ATP consumption (PfAsnRS^R487S; 5 μM OSM-S-106, PfAsnRSR487S - tRNA, 0 μM = 100, 5 µM): 99.0484 and 82.6223 and 109.414
ATP consumption (PfAsnRS^R487S; 10 μM OSM-S-106, PfAsnRSR487S + tRNA, 0 μM = 100, 10 µM): 72.3365 and 96.7874
ATP consumption (PfAsnRS^R487S; 10 μM OSM-S-106, PfAsnRSR487S - tRNA, 0 μM = 100, 10 µM): 109.074 and 99.9339 and 120.869
ATP consumption (PfAsnRS^R487S; 25 μM OSM-S-106, PfAsnRSR487S + tRNA, 0 μM = 100, 25 µM): 51.6084 and 69.971
ATP consumption (PfAsnRS^R487S; 25 μM OSM-S-106, PfAsnRSR487S - tRNA, 0 μM = 100, 25 µM): 95.4034 and 95.4106
ATP consumption (PfAsnRS^R487S; 100 μM OSM-S-106, PfAsnRSR487S + tRNA, 0 μM = 100, 100 µM): 22.4032
ATP consumption (PfAsnRS^R487S; 100 μM OSM-S-106, PfAsnRSR487S - tRNA, 0 μM = 100, 100 µM): 118.999 and 92.1296 and 93.7483
activity at 1 µM (PfAsnRS^R487S; read-out: ATP consumption, 1 μM OSM-S-106, PfAsnRSR487S - tRNA, 0 μM = 100): 92.7%
activity at 25 µM (PfAsnRS^R487S; read-out: ATP consumption, 25 μM OSM-S-106, PfAsnRSR487S - tRNA, 0 μM = 100): 109%
activity at 200 µM (PfAsnRS^R487S; read-out: ATP consumption, 200 μM OSM-S-106, PfAsnRSR487S - tRNA, 0 μM = 100): 105%
activity at 500 µM (PfAsnRS^R487S; read-out: ATP consumption, 500 μM OSM-S-106, PfAsnRSR487S - tRNA, 0 μM = 100): 110%
IC50 (PfAsnRS^R487S; read-out: IC50, ATP consumption, plus E. coli tRNA, 0.5 μM enzyme, 37 °C, […] (Fig. 3B)): 26000 nM
